The values that follow come from article PMC12136788.

The other results are listed elsewhere or left out.

The labels stand for the following.
T1: UNK ZnF1-6 (called full-length) (human, UniProt Q9C0B0 30-357)
T1 sequence: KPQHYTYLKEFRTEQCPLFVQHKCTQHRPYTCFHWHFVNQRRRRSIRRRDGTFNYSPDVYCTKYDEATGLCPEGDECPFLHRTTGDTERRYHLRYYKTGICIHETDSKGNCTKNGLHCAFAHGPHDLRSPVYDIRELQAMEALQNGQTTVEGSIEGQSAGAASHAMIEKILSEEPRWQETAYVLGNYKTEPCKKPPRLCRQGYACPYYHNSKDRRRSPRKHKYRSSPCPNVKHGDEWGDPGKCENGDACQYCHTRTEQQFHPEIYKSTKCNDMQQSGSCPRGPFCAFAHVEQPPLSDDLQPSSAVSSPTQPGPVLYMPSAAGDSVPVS

B1: chr1:217137657:217137758:-|5pUTR|ENSG00000196482|msi1|total|mutant (ssRNA)
RNA: GGGAGUUCUACAGUCCGACGAUCCGGGCUCCAGGCCGGGCUCCCUAAACGGGUCAGCAAUUGGAGCGGGAAGGCCGGACAGGCCGGUGGCGUGGGGCGCACAAGCCCGGCAGCGAUAACCGGGGACGUCUGUACUGCUUCCAACAACAGAGGAUUGAGCAUCA
B2: ENSG00000035403:stop:overlap|stop_codon|ENSG00000035403|stop_codon|NA|stop_codon (ssRNA)
RNA: GGGAGUUCUACAGUCCGACGAUCAAAUUCGAACAGAUGCUGGAUUUACACUGCGCUGGGUUAGAAAGACUCCCUGGUACCAGUAGGCACCUGGCUGAGCCUGGCUGGCACAGAAACCUCUACUAAAAAGAAGGAAAAUGAUCUCAACAGAGGAUUGAGCAUCA
B3: chr7:65954205:65954306:+|CDS_3pUTR|ENSG00000196715|msi1_unk|total|mutant (ssRNA)
RNA: GGGAGUUCUACAGUCCGACGAUCCAUCUGCAUCGUCACGUACGUGCUGAACUUCCUUCUUCUCAUUAUCAACUACAAACGACCCGUUUACUUGAACGAGGCCUGGAAGCGGCAGCUGCAACCCAAGCAGGACUGACGCCCGACCAACAGAGGAUUGAGCAUCA
B4: chr5:10679541:10679642:-|3pUTR|ENSG00000112977|msi1|FALSE|unique (ssRNA)
RNA: GGGAGUUCUACAGUCCGACGAUCCUUCAAGGCCCUGUCACCACCUAUUUCCUGAUCAGUUGGUAUAAACUGAGGGUGGCUUUUAGAGACCCAGACUUGGUUGGCAGCGCUGCCAUGGAACACCCCAGCAAGCACCUCCCAGCCCAACAGAGGAUUGAGCAUCA
B5: chr12:4445224:4445570:-|CDS|ENSG00000111241|control|control|control (ssRNA)
RNA: GGGAGUUCUACAGUCCGACGAUCCAACACGCUGCUGGACUCGAGGGGCUGGGGCACCCUGCUGUCCAGGUCUCGCGCCGGGCUAGCUGGAGAGAUUGCCGGGGUGAACUGGGAAAGUGGCUAUUUGGUGGGGAUCAAGCGGCACAACAGAGGAUUGAGCAUCA
B6: chr11:28036422:28036524:-|CDS|ENSG00000121621|unk|FALSE|unique (ssRNA)
RNA: GGGAGUUCUACAGUCCGACGAUCCAGCUCAAUGAUUCUCUUAGCAAAGAACUUCAGCCUAUUGUAUAUACACCAGAAGACUGUAGAAAAGCUUUUCAAAAUCCGUCUACAGUAACCUUAAUGAAACCAUCAUCAUUUACUACACAACAGAGGAUUGAGCAUCA
B7: chr10:97759570:97759671:+|3pUTR|ENSG00000155256|msi1|total|mutant (ssRNA)
RNA: GGGAGUUCUACAGUCCGACGAUCGACUGAGCGAGUGGACUCCGGGCUGGGCAGGCAGCCGCCACCAGAGGGCAGCAGCGAACCCGGCCAGGCCUGACUGGGGUCUGAAGAUCAGGGUCAGUGUGGCUGUGCCUGGGAAUUCCACAACAGAGGAUUGAGCAUCA
B8: chr22:28629602:28629705:-|CDS|ENSG00000100154|unk|FALSE|unique (ssRNA)
RNA: GGGAGUUCUACAGUCCGACGAUCAUUGUUCUGUAUAAUGAAGCCCUGGCUGUUGACCCUCAGAACUGCAUCUUAUACAGCAAUAGAUCUGCAGCCUACAUGAAAAUCCAGCAGUAUGACAAGGCACUGGAUGAUGCAAUCAAACAACAGAGGAUUGAGCAUCA
B9: chr17:44352837:44352938:+|3pUTR|ENSG00000030582|unk|FALSE|unique (ssRNA)
RNA: GGGAGUUCUACAGUCCGACGAUCCUGAAGACUCUGCAGCCCUCGGGACCCCACUCGGAGGGUGCCCUCUGCUCAGGCCUCCCUAGCACCUCCCCCUAACCAAAUUCUCCCUGGACCCCAUUCUGAGCUCCCCAUCACCAUGGGCAACAGAGGAUUGAGCAUCA
B10: chr6:113953301:113953428:-|CDS|ENSG00000196591|unk|total|mutant (ssRNA)
RNA: GGGAGUUCUACAGUCCGACGAUCAAAAACCAAAACUUAUGGAUUUGUUUUCAGGUAUCAUCAGAGAGUCUUAUAUAUUGAUACCGAUAUUCAUCAUGGUGAUGGUGUUGAAGAAGCUUUUUAUACAACAGAUCGUGUAAUGACCAACAGAGGAUUGAGCAUCA
B11: chr13:45957189:45957298:-|CDS|ENSG00000123200|unk|FALSE|unique (ssRNA)
RNA: GGGAGUUCUACAGUCCGACGAUCUGUUUUUGUUUUCUUCAAAUAGGGCACCAUAAAACAAGCUUACACGAGUGCUCCAAUGGUAGACAAUGAAUUACUUCGAUUGAGUCUUCGGUUAUUUAAGCGGAAGACUACUUGCCAUGCCAACAGAGGAUUGAGCAUCA
B12: chr5:138184526:138184629:+|CDS|ENSG00000112984|unk|FALSE|unique (ssRNA)
RNA: GGGAGUUCUACAGUCCGACGAUCGUGCAUGCCCCACCUAUGCAACUGGGAUUCCCAUCCCUGCACUCGUUCAUCAAGGAACAUAGUCUUCAGGUAUCCCCCAGCUUAGAGAAAGGGGCUAAGGCAGACACAGGCCUUGAUGAUCAACAGAGGAUUGAGCAUCA
B13: ENSG00000093010:stop:overlap|stop_codon|ENSG00000093010|stop_codon|NA|stop_codon (ssRNA)
RNA: GGGAGUUCUACAGUCCGACGAUCGCUGCUGCCCAGAGCCCAUUCAGUCAGCCUCAGCCUCUCCAAAGAGCCAGGCAUUCCAGUAGAGCCCUGUGUGGACACAGCUCGCUCUGGAGGCACCACCUGAGGUCUGGGAGUGUGGGGCAACAGAGGAUUGAGCAUCA
B14: chr1:150648406:150648517:-|CDS|ENSG00000143457|unk|FALSE|unique (ssRNA)
RNA: GGGAGUUCUACAGUCCGACGAUCUCAGCGUAUGGACAAGCGAACACUAGCACUCCUGGUGCUAGCCCACUCCUCUGAUGUGCUAGAGAAUGUCUUCUCCUCUCUGACAGAUGACAAGUAUGAUGUGGCAAUGAAUCGAGCCAACAACAGAGGAUUGAGCAUCA
B15: chr12:46358264:46358384:-|3pUTR|ENSG00000134294|msi1|total|mutant (ssRNA)
RNA: GGGAGUUCUACAGUCCGACGAUCAAUGUGAUCCCGUGUAAUGGAAGACCUUUGAGAACCUGGGUGUAUUAACUUUGUGUAUACCGUGUAAAUAUCCCCACUGUACUGUCCGAGGCCAACAAUUCCCGUAUGGCUUGUUGGCAACAACAGAGGAUUGAGCAUCA
B16: ENSG00000134323:stop:overlap|stop_codon|ENSG00000134323|stop_codon|NA|stop_codon (ssRNA)
RNA: GGGAGUUCUACAGUCCGACGAUCAAAAAUUGCAGGCAAGACAGCAGCAGUUGCUAAAGAAAAUUGAACACGCUCGGACUUGCUAGACGCUUCUCAAAACUGGACAGUCACUGCCACUUUGCACAUUUUGAUUUUUUUUUUAAACAACAGAGGAUUGAGCAUCA
B17: chr4:189940876:189940977:+|5pUTR|ENSG00000109536|unk|total|mutant (ssRNA)
RNA: GGGAGUUCUACAGUCCGACGAUCAGUGGAACUCUGAGCCAUUCAGCGUUUGGGUGAAGACGGAGGCGGGUUCUACAGAGACGCCGGCUGUCAGGGAGUGUUUAUUUCGCGUCCGCUUCUGUUUCUCCGCGCCCCUGUGCUGCCCAACAGAGGAUUGAGCAUCA
B18: chr19:35555165:35555334:-|CDS|ENSG00000105675|control|control|control (ssRNA)
RNA: GGGAGUUCUACAGUCCGACGAUCGGCCGUCACGGGGGAUGGUGUGAAUGACUCCCCAGCUCUGAAGAAGGCAGACAUCGGAGUAGCCAUGGGCAUCGCUGGCUCAGAUGCUGCCAAAAAUGCAGCUGACAUGAUCCUGCUGGACAACAGAGGAUUGAGCAUCA
B19: chr4:102797111:102797208:-|3pUTR|ENSG00000109332|msi1_unk|total|mutant (ssRNA)
RNA: GGGAGUUCUACAGUCCGACGAUCUCUGAGAAGACUUAAGUUCUUCCAGCUUUGGACAAUAACUGCUUUCCGAAACUGUAAAGCCGUUACAAGAGAACAGUUGCCCAAGACUCAGAAUUUUUAAAAAAAAAAAUGGAGCAUGUGCAACAGAGGAUUGAGCAUCA
B20: chr11:119418629:119418730:-|3pUTR|ENSG00000154096|msi1|FALSE|unique (ssRNA)
RNA: GGGAGUUCUACAGUCCGACGAUCCCUCAGAGGCCUUGGGGCAUGACCCAGUGAAGAUGCAGGUUUGACCAGGAAAGCAGCGCUAGUGGAGGGUUGGAGAAGGAGGUAAAGGAUGAGGGUUCAUCAUCCCUCCCUGCCUAAGGACAACAGAGGAUUGAGCAUCA
B21: ENSG00000164574:stop:overlap|stop_codon|ENSG00000164574|stop_codon|NA|stop_codon (ssRNA)
RNA: GGGAGUUCUACAGUCCGACGAUCUCGACGACUUCAGUGAUCGAGAUCUGCCGACUGCAUCAACUCCCUCUCCCUUUGUGUGCUAGAGACCCUUCAGCAUACGCAGCUCUGGGAUGAUGCCAGGAUUCCAUUUGGAGACUUCUGCAACAGAGGAUUGAGCAUCA
B22: chr11:110579372:110581225:-|CDS|ENSG00000137727|control|control|control (ssRNA)
RNA: GGGAGUUCUACAGUCCGACGAUCUAGUCAGAGCUCUUCUGGUUCUCUGCCUUGGGAAAGAGCCUCAGCCAGCUCUUGGACUCUAGAGGAUGCGACCAGCCCAGACUCAGGGCCUACAGUGGUCUGCGACAUUGAGGACAGGUACAACAGAGGAUUGAGCAUCA

In this test the target is T1, UNK ZnF1-6 (called full-length). Put plainly: nsRBNS (natural sequence RNA bind-n-seq); RBNS binding buffer (assumed for nsRBNS): 25 mM Tris pH 7.5, 150 mM KCl, 3 mM MgCl2, 0.01% Triton X-100, 500 ug/ml BSA, 20 U/ml SUPERase-In, 4 C; UNK is unkempt and MSI1 is Musashi-1; names of the RNAs are library labels; protein concentration not given here; high values mean tight binding.
In turn, B1 yielded a binding signal of 0.948 enrichment R. As for B2, the binding signal is 1.24 enrichment R. In the case of B3 it was 0.769 enrichment R. The value for B4 was 0.934 enrichment R; that for B5 was 1.04 enrichment R. On to B6, for which the binding signal came out at 0.627 enrichment R. The value for B7 was 0.476 enrichment R. The value for B8 was 0.451 enrichment R. The value for B9 was 0.792 enrichment R; that for B10 was 0.597 enrichment R; that for B11 was 0.249 enrichment R. In turn, B12 yielded a binding signal of 0.529 enrichment R. In the case of B13 it was 0.77 enrichment R. The value for B14 was 0.467 enrichment R; that for B15 was 0.377 enrichment R. In the case of B16 it was 0.401 enrichment R; in that of B17, 0.866 enrichment R.

Molecule B18 came in with a binding signal of 0.735 enrichment R. The value for B19 was 0.275 enrichment R; that for B20 was 0.86 enrichment R. The value for B21 was 0.708 enrichment R; that for B22 was 0.616 enrichment R.
